According to PMC12136788:
The list shows a part of the results.

T1: UNK ZnF1-3 (human, UniProt Q9C0B0 31-174)
T1 sequence: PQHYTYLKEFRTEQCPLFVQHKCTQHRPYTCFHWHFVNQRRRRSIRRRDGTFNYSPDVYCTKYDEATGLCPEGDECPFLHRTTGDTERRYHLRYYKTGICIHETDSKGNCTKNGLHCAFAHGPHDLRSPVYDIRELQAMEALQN

B1: chr21:38595834:38595835:-_ENSG00000157538_ENST00000309117|hu_mus|motif|central (ssRNA)
RNA: GGGAGUUCUACAGUCCGACGAUCAUCAAAGAUGACUUUUCCUUAGACUCACUAGAAAGUACGGCCCACAUUUUUUGGGUACGGGAUUGUUUAAAUAUAACAAGGAUAAGUAUGACAAAGCAAAAGUACAUUCUCUGGGAACUCCAACAGAGGAUUGAGCAUCA
B2: chr6:41757443:41757444:+_ENSG00000214736_ENST00000398881|hu_mus|hu_hu_hu_mus_False|48_88 (ssRNA)
RNA: GGGAGUUCUACAGUCCGACGAUCGAACCGUGCAGAGGCAACAUCUCGGAAUUCUGCGGGGGAUGGGGGGGCAGUGGGGGGGGGUUCAGGGAAGGGGAGGGAGUCAACUUCAGCUGCCACUCAGGUAGGAUCUUGUGGUCACAGCAACAGAGGAUUGAGCAUCA
B3: 149574919_149575039_456_5pUTR_ENSMUSG00000041658_ENSMUST00000039720|mouse|control|control (ssRNA)
RNA: GGGAGUUCUACAGUCCGACGAUCCAGAUUCUUCCAUCGUGCAACAAGUCCUUCACAGUGCCUUCUAAAUCCGCAGUACCGUUCUUCUGGCUCACCUGCCUACGCUCAGCACCCAGGGCCCGCGGGGCCUGAUCUAUCCCUGCCCAACAGAGGAUUGAGCAUCA
B4: chr7:149068622:149068623:-_ENSMUSG00000025139_ENSMUST00000001950|mus_hu|mus_mus_mus_hu_False|28_108 (ssRNA)
RNA: GGGAGUUCUACAGUCCGACGAUCGUGCAGGUACUGAGUGUGGCUUGUGGUCUGUCCUGGGUUAGAGUUGUUAAUAUCACGGAACAUACCAUCUAGAACGUUCCAGUCUGCCUGACUACCUUCAUUCCCAAUGGAGAAGAAAUCCAACAGAGGAUUGAGCAUCA
B5: chr10:82349929:82349930:+_ENSMUSG00000020250_ENSMUST00000020484|mus_hu|FALSE|FALSE (ssRNA)
RNA: GGGAGUUCUACAGUCCGACGAUCAUAACAUUUGUUGUUAUCUCUUGACGGAAUCGUCCAUUCCAAUGGCCAAAAGUAACUAUGGUAAACCUCAAUAUUUUCUUCCCCAAACUUCUCCACAGCUUUCUCCUCAGAAAGGCCACACAACAGAGGAUUGAGCAUCA
B6: 4497865_4497985_244_3pUTR_ENSMUSG00000004961_ENSMUST00000065957|mouse|control|control (ssRNA)
RNA: GGGAGUUCUACAGUCCGACGAUCAGGUGUCUUAGGCGCUGGAGACCCCAGGGUCGGGGGUUCCGGGAACAUGGCGUCGGGGUCCUGCGGUGCUUCCUGCAGAGGUACCCAAAUACUCUAUCCCCACCCCACCCCACUCCUACCCAACAGAGGAUUGAGCAUCA
B7: chr8:95530139:95530140:-_ENSG00000164944_ENST00000437199|hu_mus|FALSE|FALSE (ssRNA)
RNA: GGGAGUUCUACAGUCCGACGAUCGACACCGCUGGAAGACUGAGCCACCACCAGCGUGAGUACGCAUGCGUAAUUAUAAGCUACUGACUUCUUAGACUUGGAAUCGCCUAGGGCUUCUUUGGAAUAGUACUCCAUUAGAGUAAUCAACAGAGGAUUGAGCAUCA
B8: 197562579_197566197_1241_3pUTR_ENSG00000186001_ENST00000438796|human|control|control (ssRNA)
RNA: GGGAGUUCUACAGUCCGACGAUCUGAACCCUCAUGAGAGAUUCGCCGCUGUUCAAUAUACGCCAUAAACUGUGAACUAAGGCUGUCUGGGUCUGGUCCCUUGGGCUGUCUCACCUCGGCCUCCUCUUCCUCUGCGGUGCAGCUCAACAGAGGAUUGAGCAUCA
B9: chr12:72289710:72289711:+_ENSMUSG00000034601_ENSMUST00000129376|mus_hu|FALSE|FALSE (ssRNA)
RNA: GGGAGUUCUACAGUCCGACGAUCAGGUGAGUUAGGGUUCUCUUCUUCCAGUGGCAGGUCUCCAUCACCCCAUGGCUUGGGAAGCUCUGGGCUUGAUACCUUCAAUUUAUCAAUGGAAAUAUCUGACAAAGUUGGGGUAAAAACCAACAGAGGAUUGAGCAUCA
B10: chr9:14812383:14812384:-_ENSMUSG00000031934_ENSMUST00000164273|mus_mus|mus_mus_mus_hu_True|98_108 (ssRNA)
RNA: GGGAGUUCUACAGUCCGACGAUCAUAGCUCAAGUAGAUACAUGCCAACAGUAUAAUGAUGAGUGUCAGCAGGCGGCAGCUAAUGUACUUGAUGAUUAAAUUAUUAGAAUUUUUCUUUGUCUUCAAGUACUGCUCCACAAUUGGCAACAGAGGAUUGAGCAUCA
B11: 110815297_110815417_1300_CDS_ENSG00000196510_ENST00000455511|human|control|control (ssRNA)
RNA: GGGAGUUCUACAGUCCGACGAUCUUCAAGACAAACGGUGGCUAAAAGGGUAAGGGUCUGUGCAUUUGCUCCCAGAGUUUUGUAAACGUUGUUAGCCAUUACCAUUGCUUCUCGAAUACUGUUGGAGGCUAAGUAACAUUCGAUCAACAGAGGAUUGAGCAUCA
B12: chr2:219093530:219093531:+_ENSG00000163466_ENST00000315717|hu_mus|FALSE|FALSE (ssRNA)
RNA: GGGAGUUCUACAGUCCGACGAUCCACUCUCUUUAACAACUCAUCAGCUCCAUGUGCCUGAAGUUCCUUGUAGAAUUUCAAAGAAAUACUGACCAUCACUUUUGUUUUGUCUCCAUUAGGAUUUGAAAUAUGAUAAAGGACGCCCAACAGAGGAUUGAGCAUCA
B13: chr3:45748292:45748293:+_ENSG00000211456_ENST00000389061|hu_hu|motif|central (ssRNA)
RNA: GGGAGUUCUACAGUCCGACGAUCUGCUUUCCAGACUACAUGACUGAAAAAUUCACCUACUUUUAUCUUUUUGGUAAUGACGGUAAGAUAAUUACCUGCCACCAGAUGGAUUGUGCCCAGUAUACCAAAUAUUGGUCUUGUGACCAACAGAGGAUUGAGCAUCA
B14: chr3:10015032:10015033:+_ENSMUSG00000027533_ENSMUST00000029046|mus_mus|mus_mus_mus_hu_True|28_58 (ssRNA)
RNA: GGGAGUUCUACAGUCCGACGAUCGUUUUUACCAUCACAAGUGAUGAUACAAUCUGGCUUGGCCAUUGCGCCCAUUUUCCUAAGAGCUAUUCCCACUCCUAGCUCCUUCAUGUACUCAUCAAAGCCUUUGCUGUCCACCAGGCGCAACAGAGGAUUGAGCAUCA
B15: chr10:20042908:20042909:+_ENSMUSG00000037608_ENSMUST00000043881|mus_mus|FALSE|FALSE (ssRNA)
RNA: GGGAGUUCUACAGUCCGACGAUCGGACCGUGACCGACCUCGUCUAGGACUCCUAGAGUGCCUUCUAUUCCAGACAGGUCUAUAGCCACCUCGAUGGUAUCUCCCUCCUCCUCCUUGAUAAUACCCUCUACCCCUUCCUCUGUACAACAGAGGAUUGAGCAUCA
B16: chr16:17153567:17153568:-_ENSMUSG00000038965_ENSMUST00000090192|mus_mus|motif|central (ssRNA)
RNA: GGGAGUUCUACAGUCCGACGAUCAAGCGCACUGUAUUCUCUGCUGGCAGACCCUCCCUCCAAGGUCACCACAAACCUGCGGUAACAGGUUCCCUGCAGAGACCCAGCCAGCACAGUCUGACUACAGAUAGGGACCAUGGGGGUCAACAGAGGAUUGAGCAUCA
B17: chr7:138125181:138125182:+_ENSMUSG00000006205_ENSMUST00000006367|mus_hu|FALSE|FALSE (ssRNA)
RNA: GGGAGUUCUACAGUCCGACGAUCGAUUCCAGCUGUCACUUUCAAAGUGUUAAUUCCAAUCACUUCACCGUCCAGGUUUACUAACGGGCCUCCCGAGUUUCCAUAGUUGAUGAUGGCGUCGGUCUGGAUGUAGUCCAUGUCUGACAACAGAGGAUUGAGCAUCA
B18: 77506730_77523245_2100_3pUTR_ENSMUSG00000037857_ENSMUST00000100802|mouse|control|control (ssRNA)
RNA: GGGAGUUCUACAGUCCGACGAUCCUGGUCCUUCAUUGAUCUGGACUAUCCAUGGCUUCAUUGUAAGUGAUUAUCCUUUUGGGAUCUUGCUUCUGCAAAUUCCAUAUAGAUUCCAUUUCUUUAGUGUGAUAUACAAUAGCAGCCCAACAGAGGAUUGAGCAUCA
B19: chr12:16048344:16048345:+_ENSG00000023734_ENST00000419869|hu_hu|hu_hu_hu_mus_True|38_98 (ssRNA)
RNA: GGGAGUUCUACAGUCCGACGAUCAGAUCGUCCAUAAGUUAUAACCAAAAUCUCUCCUUCAGGAAUAUACUCCAUGCUGCUAACAGACAUAUUAAAAUUUAGAGAUUUCACUUCUGUCAUUGUGGCAUGAUCCCAGAGCCGAACCAACAGAGGAUUGAGCAUCA
B20: chr11:69638232:69638233:-_ENSMUSG00000051790_ENSMUST00000056484|mus_hu|FALSE|FALSE (ssRNA)
RNA: GGGAGUUCUACAGUCCGACGAUCGGGGAGGAGGUGGGAGAAGGGAUGGGGGAACAGGAUUCUGGGGUACAAAUCCCCACAGAAAUUCUUUGAGGGGGCCAACAUGUGUCCAGGGUGGCAAAAAAAAACCUCACCCUGCACAUGCAACAGAGGAUUGAGCAUCA
B21: chr17:80560191:80560192:+_ENSG00000141568_ENST00000335255|hu_hu|FALSE|FALSE (ssRNA)
RNA: GGGAGUUCUACAGUCCGACGAUCUCAGAGUGGAAAAUUUUGCCAGGGACAAAGUCAACACAAAGAAACAAACAACAAAAAAUAGCCAGAAAGAGAACAGUUAAGUGCAGCUCGGUGAGUCCCGGCAGUUCCUUCCCGGCACUGCAACAGAGGAUUGAGCAUCA
B22: chr10:33190432:33190433:-_ENSG00000150093_ENST00000302278|hu_mus|hu_hu_hu_mus_True|68_68 (ssRNA)
RNA: GGGAGUUCUACAGUCCGACGAUCUACAUUUUCCAAACCUGCAUGUGAAUAAAACCCUGGCCACAGAGCCCUAAAGCUACCCUACUGUGACUAAGAUGCUGCUGCUGUGAGCUUGGUGUUGCAAAAUCCGCCUGAGUAGGAUUCCAACAGAGGAUUGAGCAUCA

Target: T1, UNK ZnF1-3
Assay: nsRBNS (natural sequence RNA bind-n-seq); RBNS binding buffer (assumed for nsRBNS): 25 mM Tris pH 7.5, 150 mM KCl, 3 mM MgCl2, 0.01% Triton X-100, 500 ug/ml BSA, 20 U/ml SUPERase-In, 4 C; UNK is unkempt and MSI1 is Musashi-1; names of the RNAs are library labels; protein concentration not given here; high values mean tight binding

Which binding signal does the source give for B1 here?
The binding signal was 1.38 enrichment R.

How did the binding signal turn out when B2 was run?
Its binding signal is 0 enrichment R.

How did the binding signal turn out when B3 was run?
The binding signal was 0.913 enrichment R.

For B4, which binding signal is on record?
The binding signal was 0.859 enrichment R.

Which binding signal does the source give for B5 here?
Its binding signal is 1.02 enrichment R.

How did the binding signal turn out when B6 was run?
The binding signal was 0.875 enrichment R.

How did the binding signal turn out when B7 was run?
The binding signal was 1.15 enrichment R.

How did the binding signal turn out when B8 was run?
The binding signal was 0.77 enrichment R.

How did the binding signal turn out when B9 was run?
Its binding signal is 1.15 enrichment R.

For B10, which binding signal is on record?
The binding signal was 1.02 enrichment R.

With B11 as the binder, how does the binding signal read?
The binding signal was 0.993 enrichment R.

How did the binding signal turn out when B12 was run?
The binding signal was 1.67 enrichment R.

B13 was tested. Which binding signal did it give?
Its binding signal is 2.03 enrichment R.

Which binding signal does the source give for B14 here?
The binding signal was 0.643 enrichment R.

B15 was tested. Which binding signal did it give?
Its binding signal is 0.902 enrichment R.

For B16, which binding signal is on record?
Its binding signal is 0.958 enrichment R.

With B17 as the binder, how does the binding signal read?
The binding signal was 0.659 enrichment R.

Which binding signal does the source give for B18 here?
Its binding signal is 0.371 enrichment R.

With B19 as the binder, how does the binding signal read?
The binding signal was 1.34 enrichment R.

For B20, which binding signal is on record?
Its binding signal is 1.76 enrichment R.

Which binding signal does the source give for B21 here?
Its binding signal is 1.73 enrichment R.

How did the binding signal turn out when B22 was run?
The binding signal was 0.96 enrichment R.
